Experimental data from PubChem BioAssay AID485313 (National Center for Advancing Translational Sciences (NCATS), 2010).
Among all 320,000 compounds or so, about 7,600 (2.4%) were called active. The inconclusive results got no clear call from the source; some entries with a clear call stand among them for comparison. Calls follow the shape of the dose curve; as a rule, active = well fitted activation curve with a large enough effect; inconclusive = small, poorly fitted or top-dose-only effect; inactive = no such curve, though single readings can be large or run the other way. No potency is given beside an inconclusive call; the fits are too rough.

Experiment: qHTS Assay for NPC1 Promoter Activators; also: nearly all actives have a fitted effect of over 60% in size;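 as to activation: reporter is driven by a mutant NPC1 promoter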
Details: Huh7 NPC1 promoter luciferase reporter, 24 h; series mostly up to 9.22 µM
How it was run: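 In 1536-well qHTS, Huh7 cells harboring an NPC1 promoter–luciferase construct received compound for 24 h; activation was quantified by luminescence following luciferase reagent addition.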
Potency is read from the fitted curve at half-maximal effect; tags tell the direction and shape of the fitted curve.

SMILES | Potency
N#Cc1ccc(CN2C=NS(=O)(=O)c3ccccc32)cc1 | inactive
C/C(=N\NC(=O)c1c(Cl)cnn1C)c1cccc(NC(=O)c2ccc(C)cc2)c1 | inconclusive [activator, partial curve]
Brc1ccc(/C=C/C=N/Nc2nc3ccccc3s2)cc1 | inconclusive [activator, single point]
CCOCCCNc1ccc(-c2ccccc2)nn1 | inconclusive [activator, partial curve]
CCC(=O)NC1(Cc2ccc(O)cc2)CCCCC1 | inactive
Cc1cc(C)n(-c2nncc(-c3ccccc3)n2)n1 | inconclusive [activator, single point]
COc1ccc(/C=N\Nc2ccccn2)c(OC)c1 | inconclusive [activator, single point]
Cc1nn(-c2ccccc2)c(C)c1/C=N/O | inactive
CCCc1nc2sc3c(c2c(=O)[nH]1)CCCC3 | inactive
CC1=C(C)CC(C(=O)NCc2cccc(Cl)c2)C(C(=O)O)C1 (stereo not given) | inactive
Cc1ccc(OCC(=O)Nc2ccc3c(c2)OCO3)c([N+](=O)[O-])n1 | inconclusive [activator, single point]
CCCCn1cnc2c(cnn2-c2ccc(F)cc2)c1=O | inconclusive [activator, single point]
COC(=O)c1ccc2c(c1)C(=O)/C(=C/c1ccc(C)cc1)O2 | inconclusive [activator, partial curve]
Cc1ccc(C)c(CSc2ccc3nnc(-c4ccccn4)n3n2)c1 | inactive
COc1ccccc1C(=O)NNC(=O)c1sccc1-n1cccc1 | inconclusive [activator, partial curve]
c1ccc(CSCc2nc3ccccc3[nH]2)cc1 | inconclusive [activator, single point]
CSc1ccc(C(=O)/C=C/c2ccc(N)cc2)cc1 | inconclusive [activator, single point]
COc1cc(C2/C(=C(\O)c3ccc4c(c3)CC(C)O4)C(=O)C(=O)N2CCN2CCOCC2)cc(OC)c1OC (stereo not given) | inconclusive [activator, single point]
CCc1sc(C(=O)Nc2nccs2)cc1C | active: 3.55 µM
O=C(O)Cc1ccc(N=Nc2c(O)c(C(=O)O)cc3ccccc23)cc1 | inconclusive [activator, partial curve]
O=C1/C(=C/C=C/c2ccco2)SC(=S)N1NS(=O)(=O)c1ccccc1 | inactive
C=CCNC(=O)c1c(Br)cnn1-c1ccc(C)cc1 | active: 2.51 µM
COC(=O)Cc1[nH]n(-c2ccccc2)c(=O)c1C(C)=Nc1ccccc1 | inconclusive [activator, partial curve]
COc1ccccc1CN(C)CC(=O)NC(=O)NC1CCCCC1 | inactive
O=C(Nc1cccnc1)c1ccc(-c2ccccc2)cc1 | inconclusive [activator, partial curve]

SMILES | Potency
COc1ccc(Nc2oc(-c3ccc(Cl)cc3)nc2C#N)cc1 | inconclusive [activator, partial curve]
O=C(COC(=O)c1cccc(Br)c1)Nc1cccc2c1C(=O)c1ccccc1C2=O | inconclusive [activator, partial curve]
O=C(CCS(=O)(=O)c1ccc(F)cc1)N1CCN(c2ccccc2)CC1 | inconclusive [activator, partial curve]
O=C(/C=C/c1ccccc1)c1ccc2c(c1)OCO2 | inconclusive [activator, partial curve]
Nc1n[nH]c(N)c1N=Nc1ccc(F)cc1 | inactive
CCc1ccc(OCc2nnc(SCC(=O)NC3CCCCC3)o2)cc1 | inactive
Cc1ccccc1-n1c(C)nnc1SC(C)C(=O)NCC1CCCO1 (stereo not given) | inactive
COc1ccc(-c2cn3cc(C)ccc3n2)cc1OC | active: 1 µM
O=C(Nc1ccc(NC(=O)C2CC2)nc1)c1ccccc1F | inconclusive [activator, single point]
C/C(=N\NC(=O)c1ccccc1O)c1ccc(Br)s1 | inconclusive [activator, partial curve]
CC(/C=N/NC(=O)c1ccco1)=C\c1ccccc1 | active: 0.562 µM
COc1ccc(-c2cc(C(=O)Nc3ccc(C)c(N)c3)c3ccccc3n2)cc1 | inactive
CCCc1cc(=O)oc2cc(OCC(=O)Nc3ccccn3)ccc12 | active: 3.55 µM
Brc1ccc(-c2csc(N3CCC(c4ccccc4)C3)n2)cc1 (stereo not given) | inconclusive [activator, single point]
CC(=O)NC1=NC(=O)/C(=C/c2cc(C)n(-c3ccc(NC(C)=O)cc3)c2C)S1 | inconclusive [activator, partial curve]
Cn1nnnc1SCc1csc(Nc2ccccc2)n1 | inconclusive [activator, partial curve]
CCc1cc(C(c2ccccn2)N2CCN(C)CC2)c(NC(=O)c2ccccc2)s1 (stereo not given) | inconclusive [activator, single point]
Cc1nc2nc(NC(=O)c3ccco3)nn2c(C)c1Cl | active: 3.55 µM
N/C(=N\OC(=O)c1ccc(Cl)cc1)c1[nH]ncc1Br | inconclusive [activator, single point]
O=C(Cn1nnc(-c2ccccc2Cl)n1)N1CCCCC1 | inconclusive [activator, partial curve]
CC1CCCC(C)N1C(=O)c1cc(-c2ccc3c(c2)OCO3)on1 (stereo not given) | active: 2 µM
Cc1ccnc(N(C(=O)c2cccs2)C(=O)c2cccs2)c1 | active: 2.51 µM
NC(=O)c1ccc2c(=O)n3c(-c4cccs4)csc3nc2c1 | inconclusive [activator, single point]
COc1cc(CNC(=O)C2CC2)ccc1OCc1ccccc1 | inconclusive [activator, partial curve]
Cc1nnc(SCc2cccc3ccccc23)s1 | inconclusive [activator, partial curve]
